According to US12241058B2, “Recombinant microbial system for directed evolution of glycocins and method of preparation thereof” (COUNCIL OF SCIENTIFIC & INDUSTRIAL RESEARCH, priority 2018, dated 2025):
No end group written: not given here. *: point of attachment. X1 = OC[C@H]1O[C@@H](O[C@H]2[C@H](O)[C@@H](O)[C@H](*)O[C@@H]2CO)[C@H](O)[C@@H](O)[C@@H]1O

Key:
[1] = test system: Vibrio cholerae MTCC 3904; assay: Agar diffusion test (ADT) of cleaved neo-glycocins; type: cell-based
L. monocytogenes = assay: pH and heat stability, bioactivity verified using ADT assay; conditions: treated for 24 hours, ADT assay of neutralized peptide solution

Substance | Bioactivity against Gram negative bacteria Vibrio cholerae MTCC 3904 [1] | Bioactivity against L. monocytogenes post treatment with pH 2-10 (L. monocytogenes)
MASKRDCNLMKACCAGQAVTYAIHSLLNRLGGDS(X1)SDPAGCNDIVRKYCK (cysteines drawn unpaired) [SEQ ID NO: 9, Enterocin 96, reference compound] | not | 
MASKRDCNLMKATCAGQAVTYAIHSLLNRLGGDS(X1)SDPAGCNDIVRKYCK (cysteines drawn unpaired) [SEQ ID NO: 10] | observed | retain bioactivity
